Experimental data from PubChem BioAssay AID1645887 (National Center for Advancing Translational Sciences (NCATS), 2021).
Values joined by “and” are separate entries in the source; they are usually repeats but may differ in a detail not shown here. Equal entries are not always repeated. Hit rate of the full screen: of about 16,000 compounds, about 40 (0.2%) were called active. Roughly 1% stayed inconclusive and do not appear here. Calls come from the whole dose curve; as a rule, active = well fitted activation curve with a large enough effect; inconclusive = small, poorly fitted or top-dose-only effect, or another doubt; inactive = no such curve, though single readings can be large or run the other way. This is one part of the list. Positions of bridges follow the written chain, without caps; N, C: chain ends. Non-standard residues stand in square brackets, D forms with d. Residues, ends and D or L forms follow the SMILES beside them. *: point of attachment. X2 = CC[C@@H](C)[C@@H](N)C1=N[C@H](C(=O)*)CS1; d(aIle) = CC[C@H](C)[C@@H](N)C(=O)O; dOrn = NCCC[C@@H](N)C(=O)O; X4 = CC[C@H](C)CCCCC(=O)*; Dab = NCC[C@H](N)C(=O)O

What follows are compounds tested against Rap guanine nucleotide exchange factor 4 (Homo sapiens) (UniProt Q8WZA2) (assay: Validation qHTS for agonist of cAMP-regulated guanine nucleotide exchange factor 4 (EPAC2)). Conditions: EPAC2 Rap1B BODIPY-GDP exchange, fluorescence; activation: active compounds read high.
Description: Principle Investigator: Xiaodong Cheng Ph.D.
The University of Texas Medical Branch, […], TX
In multi-cellular eukaryotic organisms, the effects of cAMP are transduced by two ubiquitously-expressed intracellular cAMP receptors, the classic protein kinase A/cAMP-dependent protein kinase (PKA/cAPK) and the more recently discovered exchange protein directly activated by cAMP/cAMP-regulated guanine nucleotide exchange factor (EPAC/cAMP-GEF). Both PKA and EPAC are ubiquitously expressed in all tissues, and an increase in intracellular cAMP levels will lead to the activation of both PKA and EPAC. Therefore, careful dissections of the individual role and relative contribution of EPAC and PKA within the overall cAMP signaling in various model systems are critical for further elucidating the mechanism of cAMP signaling. To date no EPAC-specific antagonists and agonist, as well as isoform-specific agonists have been reported, and developing EPAC-specific pharmacological probes to determine the physiological functions that EPAC play in the overall cAMP-mediated signaling remains a major challenge within the research field. Furthermore, identified regulators of EPAC may lead to new mechanism-based therapeutic strategies specifically targeting the EPAC / cAMP-signaling components as EPAC has been implicated to play important roles in major human pathological conditions such as diabetes, heart disease, and cancer.
This qHTS will be used to screen the Molecular Libraries Small Molecule Repository (MLSMR) as a concentration-titration series using the NCGC unique quantitative screening (qHTS) platform to find activators for EPAC1. In addition, this assay will also be used as a counterscreen for the EPAC2 qHTS. This fluorescent based assay is developed and validated for EPAC1 that measures exchange using EPAC effector Rap1 complex with BODIPY-GDP, a GDP analog with a tethered fluorophores. Activators are identified by monitoring the change in fluorescence signal as the exchanged free BODIPY-GDP has a reduced fluorescence compared to Rap1-bound BODIPY-GDP. Increase in signal (activation) is the desired outcome for the EPAC1 agonist while no activity in this assay is desired for the EPAC2 agonist counterscreen.
[1] de Rooij, J., Zwartkruis, F. J., Verheijen, M. H., Cool, R. H., Nijman, S. M., Wittinghofer, A., and Bos, J.L. (1998) Nature 396, 474-477.
Briefly, three uL of reagents (100 nM EPAC2, 250 nM RAP1B-BODIPY-GDP, 50 uM GDP) were dispensed into a 1536-well Greiner black solid-bottom medium binding assay plate. Controls and test compounds (23 nL) were transferred to the plate via a Kalypsys pin tool equipped with a 1536-pin array. The plates were centrifuged at 1,000 rpm for 15 seconds followed by 5 minute incubation at room temperature. The assay plates were read at 5 minute intervals for 30 minutes in the ViewLux plate reader using 480nm excitation and 540nm emission filters. The results were normalized to the agonist positive control of 6.5 mM cAMP.
% is set by controls: 0 for no effect and ±100 for the full control effect.
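Note: exchange makes BODIPY-GDP fluorescence drop when released from Rap1B; series mostly up to about 150 µM.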

Chain of UniProt Q8WZA2 (Q8WZA2 whole entry, looked up): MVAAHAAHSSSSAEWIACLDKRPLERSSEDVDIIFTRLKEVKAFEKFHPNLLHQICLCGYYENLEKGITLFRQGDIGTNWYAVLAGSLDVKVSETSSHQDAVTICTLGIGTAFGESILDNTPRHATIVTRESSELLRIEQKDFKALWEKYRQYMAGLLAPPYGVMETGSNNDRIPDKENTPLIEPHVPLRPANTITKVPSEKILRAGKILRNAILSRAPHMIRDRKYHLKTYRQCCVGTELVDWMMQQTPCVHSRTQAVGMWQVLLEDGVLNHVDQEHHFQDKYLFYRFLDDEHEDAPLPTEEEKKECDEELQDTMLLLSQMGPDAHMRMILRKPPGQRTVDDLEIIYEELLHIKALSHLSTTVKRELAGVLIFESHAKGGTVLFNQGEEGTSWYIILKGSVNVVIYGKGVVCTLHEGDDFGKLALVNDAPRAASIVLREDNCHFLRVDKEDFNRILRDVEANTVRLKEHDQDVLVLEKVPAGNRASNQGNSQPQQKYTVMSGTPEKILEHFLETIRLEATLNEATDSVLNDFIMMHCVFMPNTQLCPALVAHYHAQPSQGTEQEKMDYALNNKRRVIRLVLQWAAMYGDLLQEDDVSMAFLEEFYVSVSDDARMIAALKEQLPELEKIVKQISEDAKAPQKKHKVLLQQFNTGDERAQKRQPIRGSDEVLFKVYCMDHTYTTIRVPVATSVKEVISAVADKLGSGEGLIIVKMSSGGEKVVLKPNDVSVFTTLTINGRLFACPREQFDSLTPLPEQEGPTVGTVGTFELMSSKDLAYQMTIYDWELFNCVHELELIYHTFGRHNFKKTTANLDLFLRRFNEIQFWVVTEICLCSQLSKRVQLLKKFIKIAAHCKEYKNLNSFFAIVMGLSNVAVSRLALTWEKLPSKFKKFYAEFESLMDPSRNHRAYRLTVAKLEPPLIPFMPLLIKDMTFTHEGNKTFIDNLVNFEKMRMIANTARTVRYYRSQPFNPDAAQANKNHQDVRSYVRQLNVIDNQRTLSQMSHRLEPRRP

activation, inactive:
c1ccc(-c2cccc(N3CCCC4(CCNCC4)C3)c2)cc1 -4.09%, O=C(c1ccco1)N1CCC2(CCCN(c3ncccn3)C2)CC1 -3.83%, O/N=C(/C[n+]1ccsc1)c1ccc(I)cc1 -3.5%, Cc1cccc(CNc2ncncc2-c2ccc3c(c2)OCO3)c1 -13.5%, COc1cc(O)cc(/C=C/c2ccccc2)c1 2.01%, CC(C)CCCC(C)CCCC(C)CCCCC(C)CCCC(C)CCCC(C)C (stereo not drawn) -15.7%, COC(=O)c1c(OC)cc2c(c1C)Oc1c(Cl)c(OC(C)=O)c(Cl)c(C)c1C(=O)O2 -19.9%, N#Cc1cc([N+](=O)[O-])c2sc(C(N)=O)[n+]([O-])c2c1 -8.48%, N#Cc1cc2[nH]c(=O)c(=O)[nH]c2cc1[N+](=O)[O-] -7.04%, CC(=O)/C=C/c1ccc2c(c1)S(=O)(=O)N(C1CCCC1)[C@H]2CC(C)=O -27.2%, CO[C@H]1[C@H](NC(=O)c2cccs2)c2ccccc2C12CCN(Cc1cccn1-c1cccnc1)CC2 1.71%, O=C(c1cccnc1)C1CCCN(Cc2ccc3c(c2)CN(C(=O)c2cccc(Cl)c2)CCO3)C1 (stereo not drawn) -21.8%, CC1CS(=O)(=O)CCN1/N=C/c1ccc([N+](=O)[O-])o1 (stereo not drawn) -4.41%, CC1CC[C@@]2(C(=O)O)CC[C@]3(C)C(=CCC4[C@@]5(C)CCC(O)C(C)(C)C5CC[C@@]43C)C2C1C (stereo partly drawn) -25.2%, CC(=O)NC(CC(=O)O)C(=O)O (stereo not drawn) -16.6%, CCCCN1C[C@H](Cc2ccccc2)[C@@H](CC(=O)Nc2ccccc2)C1=O -22.3%, CN1CCCC2(CCN(S(=O)(=O)c3ccccc3)CC2)C1 0.0223%, CCCCN1CC[C@H]2C=CC[C@@H](C(=O)Nc3ccc(OC)cc3)[C@H]2C1=O -21%, COCC(=O)N1CCC2(CCCN(c3ccncc3)C2)CC1 -9.43%, COc1ccc(C(=O)c2ccc(C)cc2)c(O)c1 -17.6%, CC[C@@H](C)[C@@H](N)C1=N[C@H](C(=O)N[C@@H](CC(C)C)C(=O)N[C@@H](CCC(=O)O)C(=O)N[C@@H](C(=O)N[C@@H]2CCCCNC(=O)[C@@H](CC(N)=O)NC(=O)[C@@H](CC(=O)O)NC(=O)[C@@H](Cc3cnc[nH]3)NC(=O)[C@@H](Cc3ccccc3)NC(=O)[C@@H]([C@H](C)CC)NC(=O)[C@@H](CCCN)NC2=O)[C@@H](C)CC)CS1 (X2-LE[d(aIle)][dK][dOrn][dI][dF][dH][dD][dN]; lactam 4-C) -3.02% and -28.2%, COc1cccc(CN2C(=O)NC(C)(C3CCN(Cc4cc(F)cc(F)c4)CC3)C2=O)c1OC (stereo not drawn) -21.7%, Cc1c(C(=O)NCC2COCCO2)cnn1-c1nccc(-c2cccs2)n1 (stereo not drawn) -14.4%, NC(=O)NC(=O)Cc1ccccc1 15.1%, COCC1CCCN(Cc2ccc3c(c2)CN(C(=O)c2ccc(-c4ccc(C)o4)cc2)CCO3)C1 (stereo not drawn) -11.2%, FC(F)(F)c1ccccc1-c1cc(NCCN2CCOCC2)ncn1 -9.23%, CC[C@H](C)CCCCC(=O)N[C@@H](CCN)C(=O)N[C@H](C(=O)N[C@@H](CCN)C(=O)N[C@H]1CCNC(=O)[C@H]([C@@H](C)O)NC(=O)[C@H](CCN)NC(=O)[C@H](CCN)NC(=O)[C@H](CC(C)C)NC(=O)[C@@H](CC(C)C)NC(=O)[C@H](CCN)NC1=O)[C@@H](C)O (X4-[Dab]T[Dab][Dab][Dab][dL]L[Dab][Dab]T; lactam 4-C) 0.683%, COc1cc(-c2cc(C)c3c(OC)ccc(OC)c3n2)cc2c1OCCN(C(=O)Cn1nc(C)cc1C)C2 -9.59%, C[C@]12C=CC(=O)C=C1[C@@H](F)C[C@@H]1[C@@H]2[C@@H](O)C[C@@]2(C)[C@H]1CC[C@]2(O)C(=O)CO 2.95% and -20.9%, CC1CC2C3CCC4=CC(=O)C=C[C@@]4(C)[C@]3(F)C(O)C[C@]2(C)[C@]1(O)C(=O)CO (stereo partly drawn) -3.09% and 6.85%, COCC(=O)N1CCC[C@@]2(CCN(Cc3cc(C(F)(F)F)cc(C(F)(F)F)c3)C2)C1 -30%, Cc1c(N)nc([C@H](CC(N)=O)NC[C@H](N)C(N)=O)nc1C(=O)N[C@H](C(=O)N[C@H](C)[C@@H](O)[C@H](C)C(=O)N[C@H](C(=O)NCCc1nc(-c2nc(C(=O)NCCCCN=C(N)N)cs2)cs1)[C@@H](C)O)[C@@H](O[C@@H]1O[C@@H](CO)[C@@H](O)[C@H](O)[C@@H]1O[C@H]1O[C@H](CO)[C@@H](O)[C@H](OC(N)=O)[C@@H]1O)c1cnc[nH]1 8.79% and -2.56%, O=C1CC2(CCCC2)CC(=O)N1CCNC[C@H]1COc2ccccc2O1 1.04%, CN1[C@@H](CC(=O)c2ccccc2)CCC[C@H]1C[C@H](O)c1ccccc1 4.81% and 6.26% and -27.2%, O=C(NCC1Cc2cc(F)cc(-c3cnccn3)c2O1)c1cccc(Cl)c1 (stereo not drawn) -1.77%, Cn1cccc1C(=O)N1CCC2(CCCN(c3ccccn3)C2)CC1 -10.5%, c1ccc2[nH]c(-c3cscn3)nc2c1 8.67% and -36.9%, N#Cc1cccc(-c2nc(Nc3ccccc3)c3ccccc3n2)c1 8.9%, OC[C@@H](O)[C@@H](O[C@@H]1O[C@H](CO)[C@H](O)[C@H](O)[C@H]1O)[C@H](O)[C@@H](O)CO 4.55%, COc1ccc(-c2ccc(C(=O)N3CCc4c(cnc(C)c4CNS(=O)(=O)N(C)C)C3)o2)cc1 8.58%, COc1ccc2[nH]cc(CCNc3ncnc4ccc(-c5ccc(C(=O)N(C)C)cc5)cc34)c2c1 -29.2%, O=C1CCC[C@@H]2[C@H](Cc3ccccc3)[C@@H](O)C[C@@H]3CCN1[C@@H]32 -12.2%, O=S(=O)(c1ccccc1)N1CCC2(CC1)CN(Cc1ccccc1)C2 -1.14%, CC(=O)C(C)=O -20.8%, C[C@@H](CN=[N+]=[N-])CN1CC[C@H](C(C)(C)C)CCC1=O -36.2%, CC1(C)OC2CC3C4CCC5=CC(=O)CCC5(C)C4(F)C(O)CC3(C)[C@]2(C(=O)CCl)O1 (stereo partly drawn) -19.2%, OC[C@H]1O[C@@H](n2cnc3cncnc32)[C@H](O)[C@@H]1O -7.61% and -13.4%, CC(C)=CCC/C(C)=C/CC/C(C)=C/CC/C(C)=C/CC1=C(C)C(=O)c2ccccc2C1=O -45% and -13.8%, CN1CCN(c2ncc3nc(-c4ccc(Cl)cc4)c(=O)n(C)c3n2)CC1 5.09%, CCn1nc(C)cc1C(=O)N1CCC2(CC1)c1ccccc1[C@@H](NC(=O)c1cccnc1)[C@@H]2O -19.1%, Cc1ccccc1C1(CC(=O)N2CCCC2c2nccs2)CC(=O)N(C2CCCC2)C1=O (stereo not drawn) -0.368%, COc1cc(O)c(C)c(O)c1 -15.3%, O=C(Nc1ccc(Cl)c(Cl)c1)C1CC1 -10.7%, Cn1cccc1C(=O)N1CCC2(CCCN(C(=O)Nc3cccc(F)c3)C2)CC1 -3.36%, C[C@H](C[C@H](N)C(=O)O)C(=O)O -13%, COc1cccc(CN2CCOc3ccc(CN4C[C@@H](C)O[C@@H](C)C4)cc3C2)c1OC -9.09%, OCC(O)C(O)C(O)C(O)C(O)CO (stereo not drawn) -15.1%, CCC1(C2CCN(C(=O)c3ccc(C)cc3C)CC2)NC(=O)N(CCc2scnc2C)C1=O (stereo not drawn) -4.11%, N#CCCn1c(=O)c(-c2cccs2)nc2cnc(OCc3ccccc3)nc21 1.71%, CCn1c(-c2cccnc2)nc2cc(NC(=O)COC)cc(C(=O)N3CCOc4ccccc4C3)c21 -16.1%, O=C(NCC1(N2CCCCC2)CCCCC1)c1ccc(-n2cc(NC(=O)c3cccnc3)cn2)cc1 -9.52%, CC1(C)C[C@@H]2C(=O)CCC3O[C@@]3(C)CCC21 (stereo partly drawn) -10.8%, COC(=O)c1cn([C@@H]2C[C@@H](C(=O)Nc3cccc(SC)c3)N(C3CCCCCC3)C2)nn1 -23.2%, COc1cc(-c2noc(C)c2/C=C/c2cccc([N+](=O)[O-])c2)cc(OC)c1OC -17.8%, COC(=O)C[C@H]1c2cc(C(F)(F)F)ccc2S(=O)(=O)N1Cc1ccccc1OC -20.8%, O=c1c(-c2ccccc2)nc2cnc(N3CCNCC3)nc2n1Cc1cccs1 1.37%, NOCC(=O)O -16%, O=C(c1ccoc1)N1CCOc2ccc(CN3CCC(Oc4cccnc4)CC3)cc2C1 0.0897%, COC(=O)N1CCC2(CCN(Cc3ccccc3)CC2)CC1 -26.1%, COCCn1c(=O)c(CCc2ccccc2)nc2cnc(N3CCOCC3)nc21 -1.12%, CCCCNC(=O)[C@@H]1CC=C[C@@H]2CCN(C3CCCCC3)C(=O)[C@@H]21 -17.5%, CC(=O)C[C@H]1c2cc(C(F)(F)F)ccc2S(=O)(=O)N1c1ccc(N(C)C)cc1 -25.3%, O=C(NCCc1ccccn1)C1CC12CCN(C(=O)c1c(F)cccc1Cl)CC2 (stereo not drawn) 6.67%
